In the supplement of paper PMC4604168 (melanoma cell lines):
The list shows a part of the results. Single values are uncertain, as repeats are few or missing.

Key:
Assay in all cases: cell count relative to DMSO control; melanoma cells; higher = more viable cells
Settings in all cases: library dose: low library concentration; 72 h
MZ2-MEL = system: MZ2-MEL
MeWo = system: MeWo
RPMI7951 = system: RPMI7951
RVH-421 = system: RVH-421
SkMel28 = system: SkMel28
SkMel2 = system: SkMel2
SkMel30 = system: SkMel30
SkMel5 = system: SkMel5
UACC257 = system: UACC257
UACC62 = system: UACC62
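Further: cell number obtained by counting DAPI-stained nuclei in high-throughput microscope images with image analysis software, screen run in 1,536-well plates.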

| SMILES | cell count (MZ2-MEL) [%] | cell count (MeWo) [%] | cell count (RPMI7951) [%] | cell count (RVH-421) [%] | cell count (SkMel28) [%] | cell count (SkMel2) [%] | cell count (SkMel30) [%] | cell count (SkMel5) [%] | cell count (UACC257) [%] | cell count (UACC62) [%] |
| --- | --- | --- | --- | --- | --- | --- | --- | --- | --- | --- |
| Nc1ncn([C@H]2C[C@H](O)[C@@H](CO)O2)c(=O)n1 [decitabine] + Oc1cc(-c2nc(-c3ccccc3)[nH]c2-c2ccncc2)ccc1Cl [L779450] (first compound 0.1 µM, partner dose 0.2 µM) | 67.5 | 95.6 | 76.3 | 75.9 | 84.2 | 91.2 | 92.6 | 106 | 81.3 | 60.4 |
| Nc1ncn([C@H]2C[C@H](O)[C@@H](CO)O2)c(=O)n1 [decitabine] + OCCn1cc(-c2cnc3nnn(Cc4ccc5ncccc5c4)c3n2)cn1 [PF04217903] (first compound 0.1 µM, partner dose 1 µM) | 87.1 | 111 | 83.1 | 91.2 | 92.7 | 93.3 | 124 | 103 | 94.8 | 75.8 |
| Nc1ccn([C@@H]2O[C@H](CO)[C@@H](O)C2(F)F)c(=O)n1 [gemcitabine] + Cc1ccc(NC(=O)c2cccc(N(C)C)c2)cc1NC(=O)c1ccc(O)cc1 [ZM336372] (first compound 0.0004 µM, partner dose 2 µM) | 69.1 | 94.8 | 96.9 | 93.1 | 115 | 117 | 90.6 | 96.2 | 93.6 | 117 |
| CC(=O)c1c(C)c2cnc(Nc3ccc(N4CCNCC4)cn3)nc2n(C2CCCC2)c1=O [palbociclib] + Oc1nc(-c2ccc(C(F)(F)F)cc2)nc2c1CSCC2 [XAV939] (first compound 0.04 µM, partner dose 2 µM) | 75.4 | 71.2 | 57.6 | 69.5 | 61.8 | 77.1 | 80.2 | 59.2 | 53.2 | 65 |
| Nc1ccn([C@@H]2O[C@H](CO)[C@@H](O)C2(F)F)c(=O)n1 [gemcitabine] + CCc1ccc(CCOc2ccc(CC3SC(=O)NC3=O)cc2)nc1 [pioglitazone] (first compound 0.0004 µM, partner dose 2 µM) | 90.2 | 103 | 103 | 86.2 | 85.3 | 99.8 | 108 | 103 | 77.5 | 93.7 |
| CC(=O)O[C@@]12CO[C@@H]1C[C@H](O)[C@@]1(C)C(=O)[C@H](O)C3=C(C)[C@@H](OC(=O)[C@H](O)[C@@H](NC(=O)OC(C)(C)C)c4ccccc4)C[C@@](O)([C@@H](OC(=O)c4ccccc4)[C@H]21)C3(C)C [Docetaxel] + CCCCCCCCCCCC1=C(O)C(=O)C=C(O)C1=O [Embelin] (first compound 0.0001 µM, partner dose 1.2 µM) | 42.4 | 43.9 | 35.6 | 60 | 50.2 | 29.4 | 36.9 | 77.7 | 51.2 | 41 |
| Nc1nc(F)nc2c1ncn2[C@@H]1O[C@H](CO)[C@@H](O)[C@@H]1O [fludarabine] + NCC(=O)Nc1ccc(-n2nc(C(F)(F)F)cc2-c2ccc3c(ccc4ccccc43)c2)cc1 [OSU03012] (first compound 0.2 µM, partner dose 1 µM) | 93.7 | 26.6 | 91.2 | 108 | 56.2 | 4.42 | 15.8 | 51.2 | 65.9 | 82 |
| CC(=O)O[C@@]12CO[C@@H]1C[C@H](O)[C@@]1(C)C(=O)[C@H](O)C3=C(C)[C@@H](OC(=O)[C@H](O)[C@@H](NC(=O)OC(C)(C)C)c4ccccc4)C[C@@](O)([C@@H](OC(=O)c4ccccc4)[C@H]21)C3(C)C [Docetaxel] + Cn1cncc1[C@@](N)(c1ccc(Cl)cc1)c1ccc2c(c1)c(-c1cccc(Cl)c1)cc(=O)n2C [tipifarnib] (first compound 0.0001 µM, partner dose 0.01 µM) | 48.9 | 40.8 | 44.1 | 88.2 | 46 | 39.1 | 32.3 | 72 | 39.8 | 55.5 |
| Nc1nc(F)nc2c1ncn2[C@@H]1O[C@H](CO)[C@@H](O)[C@@H]1O [fludarabine] + Cc1cc(N2CCOCC2)cc2[nH]c(-c3c(NC[C@@H](O)c4cccc(Cl)c4)cc[nH]c3=O)nc12 [BMS536924] (first compound 0.2 µM, partner dose 0.2 µM) | 110 | 27.9 | 112 | 91.8 | 68.6 | 2.74 | 11.8 | 39.4 | 88 | 81.7 |
| CC(=O)c1c(C)c2cnc(Nc3ccc(N4CCNCC4)cn3)nc2n(C2CCCC2)c1=O [palbociclib] + CN(NC(=O)CC(=O)NN(C)C(=S)c1ccccc1)C(=S)c1ccccc1 [STA4783] (first compound 0.04 µM, partner dose 0.006 µM) | 88.2 | 69.8 | 95.1 | 83.9 | 65 | 73 | 70.4 | 82.1 | 90.6 | 56 |
| Nc1nc(F)nc2c1ncn2[C@@H]1O[C@H](CO)[C@@H](O)[C@@H]1O [fludarabine] + Oc1cc(-c2nc(-c3ccccc3)[nH]c2-c2ccncc2)ccc1Cl [L779450] (first compound 0.2 µM, partner dose 0.2 µM) | 74.8 | 31.5 | 71.3 | 92.1 | 76.5 | 5.66 | 13.8 | 51.4 | 67.9 | 73.4 |
| Nc1ncn([C@H]2C[C@H](O)[C@@H](CO)O2)c(=O)n1 [decitabine] + Cc1ccc(NC(=O)c2cccc(N(C)C)c2)cc1NC(=O)c1ccc(O)cc1 [ZM336372] (first compound 0.1 µM, partner dose 2 µM) | 62 | 90.5 | 59.5 | 74.2 | 81.3 | 110 | 95.2 | 87.7 | 92.2 | 70.1 |
| Nc1ncn([C@H]2C[C@H](O)[C@@H](CO)O2)c(=O)n1 [decitabine] + C[C@@H]1CCN(C(=O)CC#N)C[C@@H]1N(C)c1ncnc2[nH]ccc12 [CP690550] (first compound 0.1 µM, partner dose 1 µM) | 82.2 | 97.7 | 80.6 | 85.7 | 94.3 | 97.2 | 109 | 90.6 | 75 | 70.8 |
| Nc1ncn([C@H]2C[C@H](O)[C@@H](CO)O2)c(=O)n1 [decitabine] + C=CCn1c(=O)c2cnc(Nc3ccc(N4CCN(C)CC4)cc3)nc2n1-c1cccc(C(C)(C)O)n1 [MK1775] (first compound 0.1 µM, partner dose 0.02 µM) | 81.3 | 91 | 89.7 | 94.1 | 79 | 98.2 | 100 | 88.4 | 82.4 | 65.2 |
| CC(=O)c1c(C)c2cnc(Nc3ccc(N4CCNCC4)cn3)nc2n(C2CCCC2)c1=O [palbociclib] + CCc1ccc(CCOc2ccc(CC3SC(=O)NC3=O)cc2)nc1 [pioglitazone] (first compound 0.04 µM, partner dose 2 µM) | 92.1 | 82.8 | 79.4 | 91.6 | 67.4 | 81 | 69.6 | 71 | 77.5 | 80.3 |
| CC(=O)O[C@@]12CO[C@@H]1C[C@H](O)[C@@]1(C)C(=O)[C@H](O)C3=C(C)[C@@H](OC(=O)[C@H](O)[C@@H](NC(=O)OC(C)(C)C)c4ccccc4)C[C@@](O)([C@@H](OC(=O)c4ccccc4)[C@H]21)C3(C)C [Docetaxel] + COc1ccc(-c2ccc3c(N4CCOCC4)nc(N4C[C@@H](C)O[C@@H](C)C4)nc3n2)cc1CO [KU0063794] (first compound 0.0001 µM, partner dose 0.02 µM) | 49 | 46.9 | 41.2 | 77.5 | 44.8 | 44.3 | 29 | 68 | 41.6 | 40.1 |
| CC(=O)O[C@@]12CO[C@@H]1C[C@H](O)[C@@]1(C)C(=O)[C@H](O)C3=C(C)[C@@H](OC(=O)[C@H](O)[C@@H](NC(=O)OC(C)(C)C)c4ccccc4)C[C@@](O)([C@@H](OC(=O)c4ccccc4)[C@H]21)C3(C)C [Docetaxel] + CN(NC(=O)CC(=O)NN(C)C(=S)c1ccccc1)C(=S)c1ccccc1 [STA4783] (first compound 0.0001 µM, partner dose 0.006 µM) | 54.3 | 35.6 | 38.9 | 75.8 | 43 | 41.7 | 25.4 | 65.9 | 35.7 | 55.4 |
| Nc1nc(F)nc2c1ncn2[C@@H]1O[C@H](CO)[C@@H](O)[C@@H]1O [fludarabine] + C=CCn1c(=O)c2cnc(Nc3ccc(N4CCN(C)CC4)cc3)nc2n1-c1cccc(C(C)(C)O)n1 [MK1775] (first compound 0.2 µM, partner dose 0.02 µM) | 95.4 | 26.8 | 101 | 98.4 | 57.1 | 4.77 | 15.9 | 47 | 70.7 | 77.3 |
| CC(=O)O[C@@]12CO[C@@H]1C[C@H](O)[C@@]1(C)C(=O)[C@H](O)C3=C(C)[C@@H](OC(=O)[C@H](O)[C@@H](NC(=O)OC(C)(C)C)c4ccccc4)C[C@@](O)([C@@H](OC(=O)c4ccccc4)[C@H]21)C3(C)C [Docetaxel] + CCN(CC)CCCCNc1ncc2cc(-c3cc(OC)cc(OC)c3)c(NC(=O)NC(C)(C)C)nc2n1 [PD173074] (first compound 0.0001 µM, partner dose 0.1 µM) | 48.9 | 49.3 | 39.8 | 57.8 | 48.2 | 40.3 | 44.3 | 77.6 | 58.3 | 50 |
